Several values for one entry are separate records, joined by “and”; a condition that tells them apart may be missing. Equal values may be shown once. Out of some 350,000 compounds screened, about 31,000 (8.9%) were called active. Inconclusive results, whose numbers are uncertain, are shown with a selection of clear calls. The call rests on the fitted dose curve; in most records, active means well fitted inhibition curve with a large enough effect; inconclusive means small, poorly fitted or top-dose-only effect; inactive means no such curve, though single readings can be large or run the other way. A potency beside an inconclusive call is a rough fit, not a confirmed value. Some compounds were tested as several samples or in several runs, with calls that do not always agree.
Each compound was assayed against Histone-lysine N-methyltransferase EHMT2 (Homo sapiens) (UniProt Q96KQ7) (assay: qHTS Assay for Inhibitors of Histone Lysine Methyltransferase G9a). Details: G9a H3K9 monomethylation, AlphaScreen, 2 h; activity, negative = inhibition: at 59 µM (top of the series) unless noted.
UniProt Q96KQ7, sequence (Q96KQ7 whole entry, looked up): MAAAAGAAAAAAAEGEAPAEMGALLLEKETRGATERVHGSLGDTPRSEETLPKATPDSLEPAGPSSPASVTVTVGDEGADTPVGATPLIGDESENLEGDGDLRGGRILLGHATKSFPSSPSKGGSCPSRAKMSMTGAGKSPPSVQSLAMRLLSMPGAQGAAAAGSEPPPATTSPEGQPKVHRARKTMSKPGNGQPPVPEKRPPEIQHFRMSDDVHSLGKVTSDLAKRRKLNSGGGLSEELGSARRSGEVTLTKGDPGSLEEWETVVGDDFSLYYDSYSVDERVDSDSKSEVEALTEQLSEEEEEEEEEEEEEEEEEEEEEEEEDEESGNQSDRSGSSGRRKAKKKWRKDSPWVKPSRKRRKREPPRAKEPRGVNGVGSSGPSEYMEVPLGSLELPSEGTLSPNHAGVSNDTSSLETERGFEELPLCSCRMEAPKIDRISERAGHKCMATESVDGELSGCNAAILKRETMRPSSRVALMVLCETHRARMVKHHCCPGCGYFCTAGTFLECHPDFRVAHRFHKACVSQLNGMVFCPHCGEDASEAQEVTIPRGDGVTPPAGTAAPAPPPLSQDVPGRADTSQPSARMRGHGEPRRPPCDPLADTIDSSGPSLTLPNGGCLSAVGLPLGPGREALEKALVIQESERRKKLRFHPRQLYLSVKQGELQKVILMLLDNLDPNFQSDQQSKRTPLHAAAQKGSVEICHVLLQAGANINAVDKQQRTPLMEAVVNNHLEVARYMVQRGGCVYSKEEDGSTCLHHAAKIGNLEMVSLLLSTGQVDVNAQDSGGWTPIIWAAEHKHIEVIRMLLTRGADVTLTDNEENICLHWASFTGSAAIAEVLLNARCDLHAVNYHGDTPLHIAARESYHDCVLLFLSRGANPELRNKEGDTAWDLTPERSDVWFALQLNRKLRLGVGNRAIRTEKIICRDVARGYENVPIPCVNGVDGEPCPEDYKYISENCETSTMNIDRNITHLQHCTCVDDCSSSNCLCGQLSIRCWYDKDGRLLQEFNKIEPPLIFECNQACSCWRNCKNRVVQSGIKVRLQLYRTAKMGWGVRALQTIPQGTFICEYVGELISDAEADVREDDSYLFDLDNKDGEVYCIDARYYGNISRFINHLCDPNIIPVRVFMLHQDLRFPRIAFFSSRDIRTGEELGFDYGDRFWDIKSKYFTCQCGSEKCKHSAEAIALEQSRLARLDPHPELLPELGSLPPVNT
Method in brief: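 AlphaScreen read-out: biotin-H3K9 peptide (500 nM) methylation by 20 nM enzyme with 20 uM SAM, 2 h at room temperature after 15 min compound preincubation; anti-monomethyl H3K9 antibody plus donor/acceptor beads, 10 min dark.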
Further: nearly all actives have a fitted effect of over 75% in size.
On the % scale 0 is the no-effect control and ±100 the full control effect; potency means the concentration at half of the fitted maximal effect; tags describe the fitted curve by direction and shape.

| Compound | Potency | activity, negative = inhibition |
| --- | --- | --- |
| CCN1CCN(c2cc(N3CCCC3)c([N+](=O)[O-])cc2F)CC1 | inconclusive: 12.6 µM [inhibitor, partial curve, poor fit] |  |
| CN(CC(=O)NC(=O)NCc1ccco1)CC(=O)Nc1ccccc1Cl | inconclusive: 44.7 µM [inhibitor, partial curve] |  |
| CNCCc1ccc(OC)c(OC)c1 |  | inconclusive: -64% [inhibitor] |
| Cc1ccc(O)c(C(=O)c2cc(C(=O)NCCC(C)C)c(=O)n(CCC(C)C)c2)c1 | inconclusive: 25.1 µM [inhibitor, partial curve] |  |
| O=c1[nH]c(=O)n(-c2ccc(F)cc2)c(O)c1/C=C1\C=Nc2ccccc21 | inactive |  |
| CC(C)NS(=O)(=O)c1ccc(OCC(=O)N2CCN(Cc3ccccc3)CC2)c(Cl)c1 | active: 44.7 µM |  |
| O=C1NC(=O)N(c2ccccc2)C(=O)/C1=C\c1ccc([N+](=O)[O-])s1 | active: 8.91 µM |  |
| O=C(O)c1cccc2c1NC(C(=O)O)C1CC(Sc3ccccc3[N+](=O)[O-])C(Cl)C21 (stereo unspecified) | active: 10 µM |  |
| Cc1ccc(C(O)(C(=O)NNC(=O)CN2CCN(C)CC2)c2ccc(C)cc2)cc1 | inconclusive: 22.4 µM [inhibitor, single point] |  |
| O=c1c2ccccc2nc(CN2CCCCCC2)n1-c1ccc(F)cc1 | active: 28.2 µM |  |
| COc1cc(OC)c(OC)cc1CNCCc1ccc2c(c1)OCO2 | active: 28.2 µM |  |
| NS(=O)(=O)c1cccc(N2CCNCC2)c1 | inconclusive: 50.1 µM [inhibitor, partial curve] |  |
| O=[N+]([O-])c1ccc(N2CCCC2)c2ncccc12 | inconclusive: 6.31 µM [inhibitor, single point] |  |
| CCOC(=O)c1c(NC(NC(=O)CF)C(Cl)(Cl)Cl)sc2c1CCCC2 (stereo unspecified) | active: 44.7 µM |  |
| COc1ccc(CCNC(=O)c2ccc3c(c2)CCN3S(=O)(=O)c2ccc(C)cc2)cc1OC | active: 5.01 µM |  |
| c1ccc(CN2CCNCC2)nc1 | active: 35.5 µM |  |
| Cc1cc(C)cc(N2C(=O)NC(=O)/C(=C\C=C\c3ccco3)C2=O)c1 | active: 11.2 µM |  |
| CN1C(=O)/C(=C\c2ccc(Br)s2)C(=O)NC1=S | active: 7.08 µM |  |
| NC(Cc1ccccc1)c1nc2ccccc2[nH]1 (stereo unspecified) | inconclusive: 39.8 µM [inhibitor, partial curve] |  |
| Cc1cc2ccccn2c1C(C[N+](=O)[O-])c1c(F)cccc1Cl (stereo unspecified) | active: 44.7 µM |  |
| CCC(=NCc1ccco1)c1c(O)n(Cc2ccccc2)c(=O)[nH]c1=O | inconclusive: 56.2 µM [inhibitor, partial curve, poor fit] |  |
| COc1cc2c3c(c1OC)-c1cc(O)ccc1CC3NCC2 (stereo unspecified) |  | inactive: -37.2% [at 12.7 µM] |
| O=C(Nc1ccc2c(c1)OCCO2)c1cccn(Cc2ccccc2)c1=O | inactive |  |
| Cc1c(N=Nc2c(O)[nH]c(=O)[nH]c2=O)c(=O)n(-c2ccccc2)n1C | inconclusive: 7.08 µM [inhibitor, full curve, poor fit] |  |

| Compound | Potency | activity, negative = inhibition |
| --- | --- | --- |
| Cc1[nH]c2ccc(Cl)cc2c1C1=CCNCC1 | inconclusive: 17.8 µM [inhibitor, partial curve] |  |
| CC(=O)CC(C)(C)n1c[n+](C)nn1 | inconclusive: 31.6 µM [inhibitor, single point] |  |
| O=c1c2ccccc2nc(/C=C\c2ccccc2[N+](=O)[O-])n1-c1ccccc1O | inconclusive: 8.91 µM [inhibitor, partial curve, poor fit] |  |
| Cc1ccccc1-n1c(O)c(/C=C2/C(c3ccccc3)=Nc3ccccc32)c(=O)[nH]c1=O | inconclusive: 28.2 µM [inhibitor, single point] |  |
| Nc1nc2c(s1)CCCCCCCCCC2 | active: 44.7 µM |  |
| c1cc2c(cc1CCNC1CCCCCC1)OCO2 | active: 8.91 µM |  |
| CCCCn1c(O)c(C(CC)=NCCN2CCOCC2)c(=O)[nH]c1=O | inconclusive: 2.51 µM [inhibitor, partial curve, poor fit] |  |
| OCCN1CCN(CCCN2c3ccccc3Sc3ccc(C(F)(F)F)cc32)CC1 | active: 28.2 µM and active: 11.2 µM |  |
| Cc1cc(OCC(=O)N[C@H](C(=O)O)c2ccccc2)c2c3c(c(=O)oc2c1)CCC3 | active: 79.4 µM |  |
| O=C(O)C1C2CCC(O2)C1C(=O)O (stereo unspecified) |  | inactive: 48.4% [at 12.7 µM] |
| O=C(N/N=C/c1c(O)n(C2CCCCC2)c(=S)[nH]c1=O)c1ccccc1 | inconclusive: 79.4 µM [inhibitor, single point] |  |
| O=C1CC(c2cccnc2)=NN1c1ccccc1 | inconclusive: 50.1 µM [inhibitor, partial curve, poor fit] |  |
| Cc1cccc(Cn2cccc(C(=O)Nc3nnc(C)s3)c2=O)c1 | inconclusive: 10 µM [inhibitor, partial curve] |  |
| Cc1cccc(N=Cc2c(O)n(C)c(=O)n(C)c2=O)c1 | inconclusive: 50.1 µM [inhibitor, partial curve, poor fit] |  |
| CCn1c(=O)oc2cc(NC(=O)CCl)ccc21 | inconclusive: 89.1 µM [inhibitor, single point] |  |
| CC1/C=C/C=C/CC/C=C/C=C/C=C/C=C/C(OC2OC(C)C(O)C(N)C2O)CC2O[C@](O)(CC(O)C(O)CCC(O)CC(O)CC(O)CC(=O)OC(C)C(C)C1O)CC(O)C2C(=O)O (stereo partly specified) |  | inactive: -14.8% [at 2.33 µM] |
| O=c1[nH]c(=S)n(-c2ccccc2)c(O)c1/C=N/N1CCOCC1 | inconclusive: 28.2 µM [inhibitor, single point] |  |
| CCOc1ccc2nc(NC(=O)c3cccn(Cc4ccc(C)cc4)c3=O)sc2c1 | inconclusive: 12.6 µM [inhibitor, partial curve] |  |
| C=CCN | inactive |  |
| CNC(C(=O)c1ccccc1)C(OC(C)=O)c1cccc([N+](=O)[O-])c1 (stereo unspecified) | active: 50.1 µM |  |
| COc1cc(OC)c2c(c1)O[C@@H](c1ccc(OC)c(OC)c1)[C@H](O)C2 |  | inactive: -11.6% [at 0.501 µM] |
| O=C1NC(=S)N(c2ccc(Br)cc2)C(=O)/C1=C/N1CCN(C(=O)c2ccco2)CC1 | active: 44.7 µM |  |
| O=C1NC(=S)NC(=O)C1=Cc1ccc(OCC(=O)N2CCCC2)cc1 | active: 14.1 µM |  |
| O=C(Nc1ccc(F)c(Cl)c1)N(Cc1ccc2c(c1)OCO2)C1CCN(Cc2ccccc2)CC1 | inconclusive: 25.1 µM [inhibitor, partial curve, poor fit] |  |

| Compound | Potency | activity, negative = inhibition |
| --- | --- | --- |
| O=C(CN1C(=O)CN=C(c2ccccc2)c2ccccc21)NCc1ccco1 |  | inconclusive: -62.6% [inhibitor] |
| O=C(CN1CC(c2ccccc2)CC1=O)NCc1ccc(F)cc1 (stereo unspecified) | inconclusive: 39.8 µM [inhibitor, partial curve, poor fit] |  |
| CC(=O)C1(c2ccccc2)CCN(C(=O)C2CCC(=O)N(CCc3cccc(F)c3)C2)CC1 (stereo unspecified) | inactive |  |
| COc1cc(C(=S)N2CCOCC2)ccc1O | active: 20 µM | inactive: -4.38% [at 12.7 µM] |
| Cc1cccn2c(=O)c3c(nc12)N1CCc2ccccc2C1C1(C3)C(=O)NC(=O)N(C)C1=O (stereo unspecified) | inconclusive: 44.7 µM [inhibitor, partial curve] |  |
| CCc1nc(-c2ccc(C)nc2OC)no1 | inconclusive: 0.355 µM [inhibitor, partial curve, poor fit] |  |
| CCOc1ccc(-n2c(O)c(C=Nc3ccc(N(CC)CC)cc3)c(=O)[nH]c2=O)cc1 | inconclusive: 2 µM [inhibitor, partial curve, poor fit] |  |
| CN(C)C(Cc1ccccc1)C(=O)c1cccs1 (stereo unspecified) | inconclusive: 39.8 µM [inhibitor, partial curve, poor fit] |  |
| COc1ccc(Nc2nc(N)nc(CSc3nc4ccccc4s3)n2)cc1 | inconclusive: 17.8 µM [inhibitor, partial curve, poor fit] |  |
| Oc1ccc2c3c1O[C@H]1[C@@H](O)CC[C@]4(O)[C@H](C2)N(CC2CCC2)CC[C@@]314 | inactive |  |
| CN(C(=O)COC(=O)c1ccc([N+](=O)[O-])cc1Cl)C1CCCCC1 | inconclusive: 44.7 µM [inhibitor, partial curve] |  |
| Cn1cc(C(=O)NP(=O)(N2CCOCC2)N2CCOCC2)c2ccccc21 | inconclusive: 44.7 µM [inhibitor, partial curve, poor fit] |  |
| CCCCC/C=C\C/C=C\C/C=C\C/C=C\CCCC(=O)Nc1ccc(O)cc1 | inactive |  |
| COC(=O)C1=C(c2ccc(OC(F)(F)F)cc2)C[C@@H]2CC[C@H]1N2C(=O)NCCCOC(C)C |  | inactive: -6.47% [at 2.33 µM] |
| CN(C)c1ccc(/C=C/C=C/c2sc3ccccc3[n+]2C)cc1 | inconclusive: 50.1 µM [inhibitor, partial curve] |  |
| CC(N=Cc1c(O)[nH]c(=O)[nH]c1=O)c1ccccc1 (stereo unspecified) | active: 5.62 µM |  |
| CCn1ccnc1CN1CCCC(C(=O)c2cc(F)ccc2OC)C1 (stereo unspecified) | active: 7.08 µM |  |
| O=C1NC(=S)N(c2ccccc2)C(=O)C1C(c1ccncc1)C1C(=O)NC(=S)N(c2ccccc2)C1=O (stereo unspecified) | active: 44.7 µM |  |
| CN1C(=O)C(=Cc2ccccc2OCc2ccc(C(=O)O)cc2)C(=O)N(C)C1=O | inconclusive: 39.8 µM [inhibitor, partial curve] |  |
| O=C1NC(=O)C(Sc2ccccc2[N+](=O)[O-])C(=O)N1 | active: 2.82 µM |  |
| S=c1[nH]nc(-c2ccco2)n1/N=C/c1cccs1 | active: 1.26 µM |  |
| CC(=O)Nc1nnc(SCC(=O)NCCOc2ccccc2)s1 | inconclusive: 6.31 µM [inhibitor, single point] |  |

From PubChem BioAssay AID504332 (National Center for Advancing Translational Sciences (NCATS), 2011)
